# Laboratory results published in patent US20230407364A1 (GUANGDONG MEDICAL UNIVERSITY, published 2023).
# T1: human IL-18 (human, UniProt Q14116 37-193)
# T1 construct: also called Interleukin-18
# T1 sequence (looked up): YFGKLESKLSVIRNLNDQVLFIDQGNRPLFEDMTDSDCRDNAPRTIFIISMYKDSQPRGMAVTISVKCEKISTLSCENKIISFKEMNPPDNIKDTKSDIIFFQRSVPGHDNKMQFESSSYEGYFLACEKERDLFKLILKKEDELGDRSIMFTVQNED
# B1: recombinant interleukin-18 binding protein IL-18BP-Fc (human IL-18BP isoform a, (G4S)3 linker, human IgG-Fc) (Fc fusion)
# chain: TPVSQTTTAATASVRSTKDPCPSQPPVFPAAKQCPALEVTWPEVEVPLNGTLSLSCVACSRFPNFSILYWLGNGSFIEHLPGRLWEGSTSRERGSTGTQLCKALVLEQLTPALHSTNFSCVLVDPEQVVQRHVVLAQLWAGLRATLPPTQEALPSSHSSPQQQGGGGGSGGGGSGGGGS[human IgG1 Fc not listed]
# notes: also called recombinant IL-18BP; recombinant protein IL-18BP-Fc
# Target: T1, human IL-18
# Experiment: stated with the KG-1a cell IFN-γ neutralisation assay; no direct binding assay
# Procedure: 12. In Vitro Activity Detection of Target Protein [0103] 1) Recovery of KG-1a cells is as follows. 8 mL of Dulbecco's modified eagle medium (DMEM) is added to a 10 mL centrifuge tube; the frozen KG-1a cells are taken and melted in a 37° C. water bath; and the melted KG-1a cells are immediately added to the prepared centrifuge tube and centrifuged at 1500 rpm for 5 minutes. The supernatant is sucked out and discarded, the precipitate is re-suspended with 1 mL of complete culture medium and added to a petri dish containing 6 mL of culture medium, shaken gently, and cultured in a 5% CO 2 incubator at 37° C. [0104] 2) The KG-1a cells are taken for observation under a microscope, and once the cells are in good growth status, the KG-1a cells are spread into a 96-well plate. [0105] 3) Plating: cells are collected into a sterile centrifuge tube by using a pipette and centrifuged at 1000 rpm for 5 minutes; the supernatant is discarded, resuspended and mixed with 1 mL of complete culture medium, 1 μL mixture is taken and diluted with complete culture medium 10 times, and the cells are counted under a microscope; 100 μL KG-1a cells per well (3×10⁵ cell/mL). [0106] […]
binder,measurement,value
B1,binding result,binds
